# Data as given in PubChem BioAssay (NCATS).
# Inconclusive results are not listed. Calls come from the whole dose curve; as a rule, active = well fitted inhibition curve with a large enough effect; inconclusive = small, poorly fitted or top-dose-only effect; inactive = no such curve, though single readings can be large or run the other way. More than one record can exist for a structure, and the calls need not agree. Not every entry of the source has a single result; some have several. They are shown here; other results are not. There may be further records. The records of an entry are repeated measurements across runs, samples, wells, individuals or studies. Records carry a tag for their origin. The letters are not those of the source and start again with each entry.
# System: Zika virus NS2B-NS3 protease (linked)
# Assay: 384 well plate NINDS AMC confirmatory qHTS for Zika virus inhibitors (AID 1347163); note: nearly all actives have a fitted effect of over 50% in size
# Outline: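 Fluorescence at 355/460 nm was read after 25 minutes of cleavage of 30 microM Ac-VKTGKR-AMC at room temperature, in the dark. Before substrate addition, compounds (up to 1 mM final) sat ~15 minutes with 5, 30 or 60 nM linked protease. Signals were normalized to no-enzyme and no-inhibitor wells.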
# Potency is the fitted concentration of half-maximal effect.
structure (smiles),measurement,value
CON(C)Cc1ccc(O)c2c1C[C@H]1C[C@H]3[C@H](N(C)C)C(=O)C(C(N)=O)=C(O)[C@@]3(O)C(=O)C1=C2O,Potency,active: 251 µM [sample A] and inactive [sample B]
